These results are taken from the BET-seq Pho4 binding data (Le et al. 2018).

The other results are listed elsewhere or left out. The energies were worked out here from pooled read counts, against the library average; single values are noisy.

This assay addresses T1, Pho4 (S. cerevisiae) (UniProt P07270).
T1 sequence: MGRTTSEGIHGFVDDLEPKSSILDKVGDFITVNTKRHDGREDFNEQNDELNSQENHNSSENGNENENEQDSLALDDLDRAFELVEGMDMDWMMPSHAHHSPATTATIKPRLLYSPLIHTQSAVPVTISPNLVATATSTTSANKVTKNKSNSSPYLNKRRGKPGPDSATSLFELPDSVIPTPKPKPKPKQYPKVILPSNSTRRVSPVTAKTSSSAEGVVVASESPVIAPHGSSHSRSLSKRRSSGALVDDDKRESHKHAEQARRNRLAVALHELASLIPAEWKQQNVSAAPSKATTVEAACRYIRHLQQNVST
Nature of the assay: relative binding free energy (BET-seq); higher = weaker binding. The note with it: reference: library average.
With CGGGTCACGTGGGCGA, the “relative binding free energy” value is -0.29 kcal/mol.
Regarding TGGGGCACGTGTTTAT, the “relative binding free energy” value was found to be 0.07 kcal/mol.
For GATATCACGTGGTATA, the “relative binding free energy” value was -0.01 kcal/mol.
With TGGGTCACGTGGGTGC, the “relative binding free energy” value was -0.03 kcal/mol.
Next, TAATGCACGTGTGTAG: -0.03 kcal/mol; TTGTCCACGTGGCGTT: 0 kcal/mol.
Take GTTAACACGTGTCGGG: the “relative binding free energy” value was found to be 0.19 kcal/mol.
As for ATAGGCACGTGGGGCC, the “relative binding free energy” value was -0.27 kcal/mol.
GGGTGCACGTGAGTCT: the “relative binding free energy” value turned out to be 0.1 kcal/mol.
Turning to TTATTCACGTGCGAAT, the “relative binding free energy” value is 0.28 kcal/mol.
Consider AGTTTCACGTGATTTG, for which the “relative binding free energy” value worked out at 0.3 kcal/mol.
In the case of AGATTCACGTGTCGGG, the “relative binding free energy” value stood at 0.28 kcal/mol.
Regarding GAGTGCACGTGAGTTG, the “relative binding free energy” value was determined as 0.23 kcal/mol.
Turning to TGTGTCACGTGATAGA, the “relative binding free energy” value stood at 0.18 kcal/mol.
Regarding ATTAGCACGTGATATG, the “relative binding free energy” value is -0.03 kcal/mol.
Turning to CTATTCACGTGATTTT, the “relative binding free energy” value is 0.33 kcal/mol.
In the case of CGTTGCACGTGATTGA it was 0.12 kcal/mol.
As for AGGACCACGTGGTGTT, the “relative binding free energy” value is -0.04 kcal/mol.
As for GTTGTCACGTGATTAC, the “relative binding free energy” value turned out to be 0.38 kcal/mol.
GTGTACACGTGTGAGG: the “relative binding free energy” value was 0.16 kcal/mol.
Next, TGTTCCACGTGTATGG: 0.18 kcal/mol; AGTTTCACGTGTCATA: 0.22 kcal/mol; TTCTTCACGTGTTGAA: 0.11 kcal/mol.
On to TGGAACACGTGCAGTT, for which the “relative binding free energy” value was -0.01 kcal/mol.
Take GGTGGCACGTGTACTT: the “relative binding free energy” value is 0.21 kcal/mol.
Consider CGCGTCACGTGTCAGT, for which the “relative binding free energy” value turned out to be 0.12 kcal/mol.
Take ACCGTCACGTGGTGTT: the “relative binding free energy” value was 0.07 kcal/mol.
On to CGTGTCACGTGAGAAT, for which the “relative binding free energy” value was found to be 0.32 kcal/mol.
With GGAATCACGTGCGGTG, the “relative binding free energy” value came out at 0.07 kcal/mol.
Take GTGGACACGTGGGGTA: the “relative binding free energy” value is -0.19 kcal/mol.
On to TGCGGCACGTGTCTGG, for which the “relative binding free energy” value was -0.1 kcal/mol.
Regarding TGGTGCACGTGGCTTT, the “relative binding free energy” value is -0.04 kcal/mol.
For CGTTACACGTGTATAG, the “relative binding free energy” value came out at 0.08 kcal/mol.
As to AGTCGCACGTGGCGGA, the “relative binding free energy” value was -0.14 kcal/mol.
Turning to GGCTGCACGTGTTTGA, the “relative binding free energy” value is 0.06 kcal/mol.
Regarding TAAGTCACGTGGAAGT, the “relative binding free energy” value was determined as 0.07 kcal/mol.
In the case of TACAACACGTGTTTTT, the “relative binding free energy” value was found to be 0.13 kcal/mol.
In the case of AGTTGCACGTGTAATT it was 0.23 kcal/mol.
For CTTTTCACGTGGGGGC, the “relative binding free energy” value was found to be 0.13 kcal/mol.
In the case of TGAAGCACGTGTTAGA it was -0.14 kcal/mol.
In the case of TATATCACGTGGTCGG it was 0.13 kcal/mol.
Next, TACGACACGTGTAGGT: 0.18 kcal/mol; TAAAACACGTGTTATT: -0.06 kcal/mol; AGGTGCACGTGTACTG: -0.17 kcal/mol.
In the case of AAGGCCACGTGTGGGT, the “relative binding free energy” value was determined as 0 kcal/mol.
In the case of TTTTTCACGTGGTAAA it was 0.28 kcal/mol; in that of GGAAACACGTGGAGGG, -0.06 kcal/mol; in that of GTCGTCACGTGGGTAA, 0.03 kcal/mol.
Next, AGGGCCACGTGGAGGA: -0.2 kcal/mol.
Consider AAGTTCACGTGCTGAT, for which the “relative binding free energy” value stood at 0.25 kcal/mol.
Consider ATTGGCACGTGGCTGT, for which the “relative binding free energy” value was -0.18 kcal/mol.
Consider GGTAACACGTGTACGG, for which the “relative binding free energy” value is 0.11 kcal/mol.
In the case of GTATACACGTGTTTGT it was 0.04 kcal/mol; in that of TGGGTCACGTGCACTT, 0.11 kcal/mol; in that of AGGTGCACGTGGTACG, -0.08 kcal/mol.
For the sequence TACGGCACGTGTGTAT, the “relative binding free energy” value was -0.14 kcal/mol.
On to CGTTTCACGTGTGCGG, for which the “relative binding free energy” value was 0.16 kcal/mol.
As for GCGGACACGTGGGGTA, the “relative binding free energy” value is -0.12 kcal/mol.
AGAAGCACGTGGGGTT: the “relative binding free energy” value is -0.21 kcal/mol.
Turning to GCGTGCACGTGGGAGG, the “relative binding free energy” value was -0.12 kcal/mol.
In the case of GTGCTCACGTGGTTAA it was 0.15 kcal/mol; in that of ATATTCACGTGTTGCT, 0.27 kcal/mol; in that of AAGGTCACGTGTATGA, 0.04 kcal/mol.
As for TCACGCACGTGTGTTG, the “relative binding free energy” value is -0.06 kcal/mol.
As for GGATGCACGTGGGGAA, the “relative binding free energy” value came to 0.01 kcal/mol.
For the sequence GGAGGCACGTGAATTA, the “relative binding free energy” value came out at 0.21 kcal/mol.
With ATTGTCACGTGGATTA, the “relative binding free energy” value is 0.15 kcal/mol.
Take TTATTCACGTGAATGG: the “relative binding free energy” value worked out at 0.39 kcal/mol.
For TACGGCACGTGTGGGT, the “relative binding free energy” value was found to be 0.05 kcal/mol.
In the case of TCATTCACGTGTGGTC, the “relative binding free energy” value worked out at 0.45 kcal/mol.
Regarding AACGGCACGTGTGGAT, the “relative binding free energy” value was 0.01 kcal/mol.
As to TTGCGCACGTGAAGGA, the “relative binding free energy” value was 0.14 kcal/mol.
Turning to GTGCGCACGTGGTAAG, the “relative binding free energy” value was -0.05 kcal/mol.
Consider GCGGTCACGTGGTGCT, for which the “relative binding free energy” value is -0.04 kcal/mol.
Take CTGGACACGTGATGTG: the “relative binding free energy” value was 0.19 kcal/mol.
Turning to GTGATCACGTGGACGG, the “relative binding free energy” value came to 0.05 kcal/mol.
As to TGTGACACGTGTTCGT, the “relative binding free energy” value came to 0.07 kcal/mol.
With TTTGTCACGTGCAGTA, the “relative binding free energy” value was 0.02 kcal/mol.
Turning to TTGTTCACGTGATTTT, the “relative binding free energy” value amounted to 0.39 kcal/mol.
Consider GTTTTCACGTGTTGAT, for which the “relative binding free energy” value amounted to 0.14 kcal/mol.
In the case of TACGGCACGTGGTTTA, the “relative binding free energy” value was -0.09 kcal/mol.
ACTGTCACGTGTGTTG: the “relative binding free energy” value was 0.02 kcal/mol.
Regarding GAGTGCACGTGTACGG, the “relative binding free energy” value is -0.07 kcal/mol.
For TCTGCCACGTGGGTGG, the “relative binding free energy” value is -0.28 kcal/mol.
As for TTAATCACGTGAGTCG, the “relative binding free energy” value was found to be 0.32 kcal/mol.
For ATTCACACGTGTGGTT, the “relative binding free energy” value was 0.23 kcal/mol.
With GGGAACACGTGATGCT, the “relative binding free energy” value is 0.23 kcal/mol.
For the sequence GTTCTCACGTGCGAGT, the “relative binding free energy” value was found to be 0.31 kcal/mol.
Next, TGTTTCACGTGTTGTA: 0.23 kcal/mol.
ATACGCACGTGTTGTT: the “relative binding free energy” value was -0.18 kcal/mol.
With GGATGCACGTGTTTGG, the “relative binding free energy” value is -0.01 kcal/mol.
As for TTTGACACGTGAGGTG, the “relative binding free energy” value was 0.18 kcal/mol.
In the case of GGGGGCACGTGGGCTA it was -0.23 kcal/mol.
For the sequence TTGAGCACGTGATGCA, the “relative binding free energy” value worked out at 0.15 kcal/mol.
Consider ATTGGCACGTGCACGG, for which the “relative binding free energy” value was -0.13 kcal/mol.
In the case of TATAGCACGTGGGGAT, the “relative binding free energy” value is -0.2 kcal/mol.
In the case of GTGGACACGTGTTGTT, the “relative binding free energy” value was 0.05 kcal/mol.
Regarding TGTATCACGTGTCATG, the “relative binding free energy” value stood at 0.16 kcal/mol.
Next, TCGCTCACGTGGTAGT: 0.04 kcal/mol; GTGCACACGTGAAGGG: 0.19 kcal/mol.
For the sequence TAGGCCACGTGTATGT, the “relative binding free energy” value is -0.02 kcal/mol.
For GGTGGCACGTGGTGCG, the “relative binding free energy” value is -0.07 kcal/mol.
For the sequence TTCTGCACGTGAAGGT, the “relative binding free energy” value was found to be 0.15 kcal/mol.
In the case of TTTTGCACGTGCTTGC, the “relative binding free energy” value worked out at 0.01 kcal/mol.
As for GGCTGCACGTGTTAGT, the “relative binding free energy” value worked out at 0.17 kcal/mol.
For TTACTCACGTGGTTTT, the “relative binding free energy” value is 0.17 kcal/mol.
ATCTACACGTGGGATG: the “relative binding free energy” value was -0.01 kcal/mol.
Next, GAGGACACGTGGTGCG: 0.09 kcal/mol; GGGGTCACGTGAGGCG: 0.38 kcal/mol.
Turning to TTATACACGTGTTGTT, the “relative binding free energy” value came out at 0.02 kcal/mol.
Regarding AGGAACACGTGATGGG, the “relative binding free energy” value turned out to be 0.24 kcal/mol.
Next, GTATACACGTGGGGTA: -0.03 kcal/mol; GCAGGCACGTGGTGGG: -0.07 kcal/mol; CGGTTCACGTGAGATG: 0.3 kcal/mol.
As for AATTGCACGTGGGGGA, the “relative binding free energy” value was -0.15 kcal/mol.
As to TGTTACACGTGTTGCA, the “relative binding free energy” value came to 0.11 kcal/mol.
As for GTTAGCACGTGTTTTC, the “relative binding free energy” value was 0.15 kcal/mol.
With GCGGGCACGTGGTGGT, the “relative binding free energy” value was -0.09 kcal/mol.
As for CATGGCACGTGAGTTT, the “relative binding free energy” value worked out at 0.06 kcal/mol.
On to TGGCCCACGTGGGCGT, for which the “relative binding free energy” value is -0.22 kcal/mol.
ATGAGCACGTGTTGCG: the “relative binding free energy” value was 0.03 kcal/mol.
Next, GGTATCACGTGTGTCG: 0.1 kcal/mol.
Take GGCTTCACGTGAGTTA: the “relative binding free energy” value was determined as 0.53 kcal/mol.
Turning to AGTGTCACGTGTTAAG, the “relative binding free energy” value was determined as 0.18 kcal/mol.
In the case of TTGGTCACGTGTGAGA it was 0.08 kcal/mol.
With TGTCACACGTGGAGGT, the “relative binding free energy” value was 0.01 kcal/mol.
Next, TGGGTCACGTGCAGTG: 0.05 kcal/mol; TTAAGCACGTGGTAGA: -0.22 kcal/mol; ATATGCACGTGAAGGT: 0.23 kcal/mol.
As for TTGGGCACGTGCTTAG, the “relative binding free energy” value is -0.12 kcal/mol.
As to TTTGTCACGTGTAGAC, the “relative binding free energy” value was determined as 0.3 kcal/mol.
In the case of AGTCTCACGTGTATAG, the “relative binding free energy” value amounted to 0.17 kcal/mol.
As for CATGTCACGTGAATGG, the “relative binding free energy” value came out at 0.1 kcal/mol.
Next, GTGTGCACGTGGGAGC: -0.06 kcal/mol.
In the case of TTAAGCACGTGCTGGT, the “relative binding free energy” value was -0.11 kcal/mol.
Regarding CCTGGCACGTGTAGGT, the “relative binding free energy” value is -0.14 kcal/mol.
For the sequence TTTCACACGTGGTCTG, the “relative binding free energy” value amounted to 0.05 kcal/mol.
Consider TGTGTCACGTGCACTG, for which the “relative binding free energy” value is 0.07 kcal/mol.
Regarding TTGAGCACGTGTAATT, the “relative binding free energy” value turned out to be 0.03 kcal/mol.
For the sequence AGATTCACGTGGAGAT, the “relative binding free energy” value stood at 0.18 kcal/mol.
On to GTGATCACGTGTCTGG, for which the “relative binding free energy” value came out at 0.1 kcal/mol.
With AGCGGCACGTGTAGAG, the “relative binding free energy” value is -0.09 kcal/mol.
With AATAACACGTGGGTGA, the “relative binding free energy” value is -0.18 kcal/mol.
Next, AAGATCACGTGTTTTA: 0.16 kcal/mol; GAGAGCACGTGTGTGG: -0.12 kcal/mol.
Regarding TTTATCACGTGTTTTT, the “relative binding free energy” value worked out at 0.35 kcal/mol.
